# Assay results published in PubChem BioAssay AID662 (National Center for Advancing Translational Sciences (NCATS), 2007).
# Out of some 71,000 compounds screened, about 1,800 (2.5%) were called active. The shares of active, inactive and inconclusive entries below differ from those in the screen. Calls follow the shape of the dose curve; as a rule, active = well fitted activation curve with a large enough effect in the signal ratio, with a control signal flat (not every such curve was filed as active); inconclusive = small, poorly fitted or top-dose-only effect, or effect the other way, or a change in a side signal; inactive = flat fitted curve, though single readings scatter; the % refers to the signal ratio. Potencies of inconclusive entries are doubtful fits and often do not repeat.
# Assay: Cell signaling CRE-BLA (Fsk stim); as to activity change, negative = inhibition: % of control where 0% means no effect
# Conditions: CHO CRE-bla reporter (cAMP response element driving beta-lactamase), forskolin EC10, beta-lactamase ratio
# Method in brief: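 Beta-lactamase reporter under a cAMP responsive element in CHO cells; compounds tested in titration series against EC10 NKH 477, 3 h at 37 °C. Read-out: CCF4 FRET ratio 460nm/530nm (excitation 405nm) giving %Activity, fitted to AC50.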
# [1] = activity change, negative = inhibition: at 38.2 µM (top of the series) unless noted
# Potency is read from the fitted curve at half-maximal effect; tags tell the direction and shape of the fitted curve.
structure (smiles),measurement,setting,value
COc1nccc(Nc2ccccc2)c1C#N,Potency,[1],"inconclusive: 12.6 µM [rising, single point]"
CC(=O)N1CCc2cc(S(=O)(=O)NC(C(=O)Nc3nc(C)cs3)C(C)C)ccc21 (stereo not given),"activity change, negative = inhibition",[1],inconclusive: 9.29%
CCOC(=O)c1c(C)[nH]c(C(=O)COC(=O)c2ccccc2NC(=O)c2ccco2)c1C,Potency,[1],active: 2 µM
CCC(C)(C)C,"activity change, negative = inhibition",[1],inactive
COC(=O)c1ccc(C(NC(=O)OCc2ccccc2)/C(F)=C/[C@@H](C)C(=O)N[C@@H](CO)Cc2ccccc2)cc1 (stereo not given in full),"activity change, negative = inhibition",[1],inactive
CCc1ccc(CCC(=O)Nc2nnc(CC)s2)o1,"activity change, negative = inhibition",[1],inactive
CCOC(=O)c1ccc(N=c2sc(C(=O)OC)cc(=O)n2CCCN2CCOCC2)cc1,"activity change, negative = inhibition",[1],inconclusive: -24%
COc1ccc(C2=C(N)c3ccccc3C2=O)cc1,"activity change, negative = inhibition",[1],inactive
COc1cccc(-c2nnc(NC(=O)Cc3cccs3)s2)c1,"activity change, negative = inhibition",[1],inactive
COc1cc2cc(C(=O)Nc3ccccc3)c(N)nc2cc1OC,Potency,[1],active: 3.16 µM
COC(=O)CN(c1ccc2c(c1)OCO2)S(C)(=O)=O,"activity change, negative = inhibition",[1],inactive
N[C@H](C(=O)O)[C@H](OCc1ccccc1)C(=O)O,"activity change, negative = inhibition",[1],inactive
Cc1ccc(NC(=O)c2ccccc2)s1,"activity change, negative = inhibition",[1],inconclusive: -10.2%
Cc1cc(F)ccc1S(=O)(=O)Nc1ccccc1C(=O)Nc1ncn[nH]1,"activity change, negative = inhibition",[1],inactive
COc1ccccc1CNc1cc(-c2ccoc2)ncn1,"activity change, negative = inhibition",[1],inactive
O=S(=O)(NC1CCCCC1NS(=O)(=O)c1ccc(F)cc1)c1ccc(F)cc1 (stereo not given),Potency,[1],"inconclusive: 25.1 µM [falling, single point]"
COc1ccc2[nH]cc(CCNc3nc(-c4ccc(N(C)C)cc4)nc4ccccc34)c2c1,Potency,[1],"inconclusive: 1 µM [rising, partial curve]"
COc1ccc(NC(=O)N(CCO)Cc2cc3c(C)cc(C)cc3[nH]c2=O)cc1,Potency,[1],"inconclusive: 20 µM [rising, single point]"
CCOC(=O)CSc1nnc(CSc2nc(N)c3c(C)c(C)sc3n2)n1-c1ccccc1,Potency,[1],"inconclusive: 2.51 µM [rising, partial curve]"
N#C[C@@H](Cc1ccc(O)c(O)c1)C(=O)N1CCc2ccccc21,"activity change, negative = inhibition",[1],inconclusive: -26.2%
Cn1c(=O)c(C(=O)c2ccccc2)nc2ccccc21,"activity change, negative = inhibition",[1],inactive
Cc1cccc(-c2nsc(SCC(=O)Nc3cc(C)on3)n2)c1,"activity change, negative = inhibition",[1],inconclusive: -4.93%
COc1cc2c(cc1OC)C(C(=O)N1CCN(c3ccccn3)CC1)C(c1cccs1)N(C)C2=O (stereo not given),Potency,[1],"inconclusive: 5.01 µM [rising, partial curve]"
COC(=O)C1C(=O)C2=C(CC1C)NC(=O)CC2c1cccc(C)c1 (stereo not given),Potency,[1],"inconclusive: 10 µM [falling, single point]"
COc1ccc(-n2c(=O)c(CCc3ccccc3)nc3cncnc32)cc1,"activity change, negative = inhibition",[1],inactive
Cc1onc(-c2c(F)cccc2Cl)c1C(=O)Nc1cccc(Cn2cccn2)c1,"activity change, negative = inhibition",[1],inconclusive: 15.2%
CS(=O)(=O)c1ccc(Cl)c(NC(=O)COC(=O)CNC(=O)c2ccc(Br)o2)c1,Potency,[1],"inconclusive: 0.126 µM [falling, single point]"
CC[N+](CC)(CC)CC[C@](O)(c1ccccc1)C1CCCCC1,"activity change, negative = inhibition",[1],inactive
CCNc1ncc2nc(-c3cc(F)cc(F)c3)c(=O)n(Cc3cccs3)c2n1,Potency,[1],"inconclusive: 0.631 µM [rising, full curve]"
CC(O)Cc1nsc(NC(=O)c2ccc(Br)o2)n1 (stereo not given),"activity change, negative = inhibition",[1],inconclusive: -20.4%
COc1ccccc1Nc1nc(N)nc(CSCCO)n1,"activity change, negative = inhibition",[1],inconclusive: 0.668%
CN(C)C(=O)c1ccc(-c2nccc(-n3ccnc3)n2)cc1,"activity change, negative = inhibition",[1],inconclusive: 7.71%
Cc1noc(C)c1COC(=O)Cc1ccc(Cl)c(Cl)c1,"activity change, negative = inhibition",[1],inactive
COC(=O)C1=C(C)N(C)C(C)=C(C(=O)OC)C1c1ccccc1C,Potency,[1],"inconclusive: 12.6 µM [rising, single point]"
CCOc1ccc(C(=O)Nc2ccc(NC(=O)c3ccco3)c(Cl)c2)cc1Br,Potency,[1],"inconclusive: 0.126 µM [rising, full curve, poor fit]"
CCNc1nc(NCC)nc(OCCNS(=O)(=O)c2cc(C)ccc2C)n1,"activity change, negative = inhibition",[1],inconclusive: 21%
Cc1occc1C(=O)Nc1nccs1,"activity change, negative = inhibition",[1],inconclusive: -10.9%
CCOC(=O)C1CCCN(c2cc(C)nc3cc(-c4ccc(F)cc4)nn23)C1 (stereo not given),Potency,[1],"inconclusive: 15.8 µM [rising, single point]"
Cc1ccc(C)c(NC(=O)CSc2nnc(CCCCCNC(=O)OC(C)(C)C)o2)c1,"activity change, negative = inhibition",[1],inconclusive: -11.8%
C/C(=C\C(=O)c1ccc(Br)cc1)N1CCCCC1,"activity change, negative = inhibition",[1],inactive
Cc1ccc(N2C(=O)c3oc4ccccc4c(=O)c3C2c2cccc(O)c2)nc1 (stereo not given),"activity change, negative = inhibition",[1],inconclusive: -25.7%
CCOC(=O)c1cnn(-c2cc(C)nc3c(-c4ccccc4)cnn23)c1N,"activity change, negative = inhibition",[1],inconclusive: -1.3%
Cc1cccc(-n2ncc3c(NC4CCCCC4)ncnc32)c1,Potency,[1],"inconclusive: 12.6 µM [rising, single point]"
COc1cc2c(cc1OC)-c1cc(NC3CCCCC3)nc(=O)n1CC2,Potency,[1],active: 2 µM
Fc1cccc(CSc2ncnc3c2oc2ccccc23)c1,"activity change, negative = inhibition",[1],inconclusive: 8.99%
CCOC(=O)c1sc2ncnc(OC)c2c1C,Potency,[1],"inconclusive: 15.8 µM [rising, single point]"
COC(=O)C(C)Sc1nc2c(cnn2-c2ccc(C)cc2)c(=O)[nH]1 (stereo not given),Potency,[1],"inconclusive: 15.8 µM [rising, partial curve]"
CCn1c(SCC(=O)Nc2cccc(NC(=O)c3ccco3)c2)nnc1-c1cccs1,"activity change, negative = inhibition",[1],inactive
C[C@H](N=C(NC#N)Nc1ccncc1)C(C)(C)C,"activity change, negative = inhibition",[1],inconclusive: -1.88%
same,"activity change, negative = inhibition",at 17.1 µM (top of the series),inactive: -4.46%
same,"activity change, negative = inhibition",at 38.2 µM (top of the series),inactive: -2.84%
CCCn1c(=O)c(C(=O)NCc2ccc(OC)c(OC)c2)c(O)c2ccccc21,Potency,[1],"inconclusive: 1.58 µM [rising, partial curve]"
CCOC(=O)CSc1nc2c(c(=O)n(Cc3ccccc3Cl)c(=O)n2C)n1C,Potency,[1],"inconclusive: 2 µM [rising, full curve, poor fit]"
Cc1ccc(C)n1-c1cc(S(=O)(=O)N2CCOCC2)ccc1N1CCCC1,"activity change, negative = inhibition",[1],inactive
COc1ccc(NC(=O)c2cc(-c3ccc(C)o3)nc3ccccc23)cc1OC,Potency,[1],"inconclusive: 10 µM [rising, single point]"
